Screen size: about 310,000 compounds; about 14,000 (4.5%) showed an effect of 50% or more. The effect is printed as a negative number. Some of the results follow.
Target: human ether-à-go-go-related gene (hERG) potassium channel (human, UniProt Q12809)
Experiment: primary screen, population patch clamp on CHO cells stably expressing hERG
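Also: peak tail current of the secondary pulse compared with the same well before compound.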

human ether-à-go-go-related gene (hERG) potassium channel, sequence (Q12809 whole entry, looked up): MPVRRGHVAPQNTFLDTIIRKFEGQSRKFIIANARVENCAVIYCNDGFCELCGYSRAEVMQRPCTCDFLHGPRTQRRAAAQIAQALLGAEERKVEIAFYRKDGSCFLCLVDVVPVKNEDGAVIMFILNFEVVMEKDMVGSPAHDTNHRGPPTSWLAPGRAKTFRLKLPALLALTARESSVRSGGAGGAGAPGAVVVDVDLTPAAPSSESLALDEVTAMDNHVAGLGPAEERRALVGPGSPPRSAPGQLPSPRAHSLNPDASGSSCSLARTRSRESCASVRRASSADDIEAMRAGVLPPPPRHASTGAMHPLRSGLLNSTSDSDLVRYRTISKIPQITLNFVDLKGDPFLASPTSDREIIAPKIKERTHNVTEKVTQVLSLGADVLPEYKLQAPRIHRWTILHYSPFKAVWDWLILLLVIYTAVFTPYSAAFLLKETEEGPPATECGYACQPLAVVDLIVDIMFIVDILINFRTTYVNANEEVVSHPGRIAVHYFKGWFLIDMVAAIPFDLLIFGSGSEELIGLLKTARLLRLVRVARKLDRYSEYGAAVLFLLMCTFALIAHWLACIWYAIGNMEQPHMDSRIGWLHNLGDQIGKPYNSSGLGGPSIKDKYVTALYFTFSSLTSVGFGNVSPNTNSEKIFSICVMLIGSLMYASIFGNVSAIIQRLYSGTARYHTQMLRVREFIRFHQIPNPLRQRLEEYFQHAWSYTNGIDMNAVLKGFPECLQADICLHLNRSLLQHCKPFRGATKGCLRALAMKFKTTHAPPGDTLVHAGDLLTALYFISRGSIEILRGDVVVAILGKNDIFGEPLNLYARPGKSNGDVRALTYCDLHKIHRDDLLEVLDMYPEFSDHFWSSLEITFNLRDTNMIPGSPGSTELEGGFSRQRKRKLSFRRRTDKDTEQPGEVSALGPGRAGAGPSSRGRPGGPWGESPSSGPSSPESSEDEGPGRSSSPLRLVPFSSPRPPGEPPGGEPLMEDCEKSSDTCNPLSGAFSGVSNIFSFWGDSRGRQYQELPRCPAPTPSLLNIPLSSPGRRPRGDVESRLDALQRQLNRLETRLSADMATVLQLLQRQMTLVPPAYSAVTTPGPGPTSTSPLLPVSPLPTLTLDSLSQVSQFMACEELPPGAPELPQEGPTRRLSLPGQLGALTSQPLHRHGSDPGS

Structure (SMILES)	hERG current change (%, negative = inhibition) at 10uM
O=C(COC(=O)CCC(=O)c1ccc(F)cc1)Nc1ccc(N2CCOCC2)cc1	1.83%
Cc1ccccc1NC(=S)N1CCCC(c2nc3ccccc3[nH]2)C1 (stereo not shown)	11.5%
Cc1ccc(CN2CCN(Cc3ccc(-n4cccn4)cc3)CC2CCO)cc1 (stereo not shown)	-78.1%
Cc1ccc(-c2nc(P(=O)(c3ccccc3)c3ccccc3)c(N3CCOCC3)o2)cc1	-38.3%
CC(=O)N=c1sccn1CC(O)c1ccccc1 (stereo not shown)	-7.22%
COCCNC(=O)C(c1ccc(C)cc1)N(Cc1ccccc1)C(=O)CCC(=O)Nc1ccccn1 (stereo not shown)	-5.43%
COc1ccccc1C(=O)N1CCN=C1SC	5.95%
COc1ccc(CCN2CC(C(=O)NCCN3CCCC3=O)CCC2=O)cc1 (stereo not shown)	-0.377%
CCC(C)NC(=O)c1ccccc1NC(=O)c1ccc(CSc2ccc(C)cc2)cc1 (stereo not shown)	6.25%
NS(=O)(=O)c1ccc(CNC(=O)c2ccccc2SCC(=O)N2CCCC2)cc1	-7.36%
Cc1ccc(C(=O)Nc2nnc(-c3ccco3)o2)cc1	15.6%
CCN1CCCC1CNC(=O)c1cc(S(N)(=O)=O)ccc1OC (stereo not shown)	36.6%
CCOC(=O)c1ccc(NC(=O)CC2COc3ccccc3O2)cc1 (stereo not shown)	-2.92%
CC(C)CNC(=O)/C=C/C=C/CCCC/C=C/c1ccc2c(c1)OCO2	20.7%
COc1ccccc1NS(=O)(=O)c1cc(N/C(=N\S(=O)(=O)c2ccccc2)c2ccc(F)cc2)ccc1Cl	-4.02%
CCCCCn1nc(C(=O)OCc2nnc(-c3ccccc3)o2)c2ccccc2c1=O	6.13%
COc1ccc(-c2cc(=O)oc3c(C)c(OC(C)C(=O)NCc4ccccn4)ccc23)cc1 (stereo not shown)	-9.16%
CN(C)C(CNC(=O)c1cnc(Cl)c(Cl)c1)c1ccccc1 (stereo not shown)	8.61%
CCOC(=O)c1sc(NC(=O)CSc2nnc(-c3ccc(OC)cc3)n2CCOC)nc1C	-27.3%
COc1ccc(OC)c(C(=O)NC(CC(N)=O)c2ccc(N3CCN(c4ccccn4)CC3)c([N+](=O)[O-])c2)c1 (stereo not shown)	5.61%
C=CCn1c(SCC(=O)Nc2ccccc2OC)nc2c([nH]c3ccccc32)c1=O	6.94%
COc1ccccc1CN1CCNC(=O)C1CC(=O)NCc1cn(C)nc1C (stereo not shown)	11%

Structure (SMILES)	hERG current change (%, negative = inhibition) at 10uM
Cc1nc(CS(=O)(=O)c2ccccc2)cc(Sc2ccccc2Cl)n1	-10.3%
CCCCNC(=S)N(CCN(CC)CC)Cc1cc2cc3c(cc2[nH]c1=O)OCCO3	-1.01%
Cc1c(-c2nn(C)c(=O)c3ccccc23)oc2ccc(F)cc2c1=O	7.43%
COC(=O)c1ccccc1NC(=O)N1CCN(c2ccc(OC)cc2)CC1	-16.7%
CC(NCCOCCOc1ccccc1)c1ccccc1 (stereo not shown)	-9.56%
CC1CCN(c2ccccc2N)CC1	5.45%
CCNC(=S)N(CCN(CC)CC)Cc1cc2cc3c(cc2[nH]c1=O)OCCO3	6.16%
CN1CCc2cccc(Cl)c2CC1.Cl	-5.93%
COc1cccc(NC(=O)c2ccc3c(O)c(S(=O)(=O)c4ccccc4)c(=O)[nH]c3c2)c1	19.6%
CC(=O)c1n[nH]nc1NC(=O)c1ccccc1	12.6%
COc1ccc(C(=O)N2CCC(C(=O)Nc3ccc4c(c3)OCCO4)CC2)cc1	-44.2%
COc1ccc(CN(C)C(=O)C2CCN(C(=O)Nc3ccccc3)CC2)cc1	-16.3%
Cc1ccc(N2C(=O)C3Sc4[nH]c(=O)sc4C(c4ccccc4)C3C2=O)cc1 (stereo not shown)	0.656%
O=C(Cc1ccccc1)Oc1cccc(N2C(=O)CCC2=O)c1	17.1%
O=C(NC1CCCc2ccccc21)c1ccc(Cl)nc1 (stereo not shown)	-10.1%
COc1ccc(-c2nc(NC(C)=O)sc2-c2ccccc2)cc1	34.7%
O=S1(=O)[C@H]2C[C@@H]3C=C[C@@]2(CN1Cc1ccc(F)cc1)O3	-25.2%
CCOc1ccccc1NS(=O)(=O)c1c(C)[nH]c(C)c1C(=O)N1CCCCC1	2.07%
CCOC(=O)c1cnc(COc2ccc(OC)cc2)[nH]c1=O	6.82%
COc1ccc(/C=C/C(=O)NCCSCc2ccco2)cc1OC	11.7%
O=C(c1cc(Cl)nc2ccccc12)N1CCN(S(=O)(=O)c2ccccc2[N+](=O)[O-])CC1	-7.77%
Cc1cccc(C)c1NC(=O)CNC(=O)c1ccc(S(=O)(=O)NCc2ccco2)cc1	8.87%

Structure (SMILES)	hERG current change (%, negative = inhibition) at 10uM
COc1ccccc1CNC(=O)CN(C)S(=O)(=O)c1ccc2c(c1)c(=O)n(C)c(=O)n2C	0.355%
CCC(CC)c1nnc(NC(=O)c2ccc([N+](=O)[O-])cc2)s1	-1.37%
CCOC(=O)N1CCN(C(=O)CN2C(=O)CC(C)(C)S(=O)(=O)c3ccccc32)CC1	19.7%
CCCCOc1cccc(C(=O)NC(=S)Nc2cccc(NC(=O)c3ccccc3Cl)c2)c1	-8.49%
Clc1cccc(Cl)c1CSc1nnc(CN2CCOCC2)n1-c1ccccc1	-28.9%
Cc1cccc(Cl)c1NC(=O)N1CCCN(c2nc3ccc(Cl)cc3s2)CC1	-20.6%
CCOC(=O)c1c(S(=O)(=O)NCc2cccs2)c(C)n(C)c1C	-12.1%
C=CCc1ccc2oc(C(=O)OCC)cc(=O)c2c1O	7.27%
Cc1ccc2nc(NC(=O)CS(=O)(=O)Cc3ccccc3)sc2c1	19.3%
COc1ccc([C@@H]2[C@@H]3C(=O)N(C(C)(C)C)C(=O)[C@@H]3[C@]3(Cc4ccc(Cl)cc4)C(=O)N(c4cccc(C)c4)C(=O)N23)cc1	22.1%
COc1cccc(C2CC(c3ccc(NS(C)(=O)=O)cc3)=NN2C(=O)c2ccccc2)c1OC (stereo not shown)	-64.4%
CC(C)c1ccc(NC(=O)CSc2n[nH]c(=O)n2-c2ccc3c(c2)OCCO3)cc1	-2.99%
CCn1c2ccc(Cl)cc2c2nc3ccccc3nc21	11.9%
O=C1CC(c2ccccc2)CC(O)=C1C=NCCCN1CCOCC1 (stereo not shown)	-9.92%
CN1CCN(C(=O)c2ccc(N(Cc3ccc(Cl)cc3)S(C)(=O)=O)cc2)CC1	-12.4%
O=C1CCc2cc(S(=O)(=O)N3CCN(Cc4ccc5c(c4)OCO5)CC3)ccc2N1	-70.1%
COc1ccc(C/C(N)=N/OC(=O)Cc2ccc(OC)c(OC)c2)cc1	-23.8%
Cc1ccc(NC(=S)N(CCN(C)C)Cc2cccs2)c(C)c1	-15.6%
COc1ccc(C(O)CNc2ccc(C)cc2)cc1 (stereo not shown)	-2.69%
Cc1cc2occ(CC(=O)N(C)CC(=O)Nc3ccccc3C(F)(F)F)c2cc1C	-18%
CC(C)Cc1nnc(NC(=O)CSc2nc(O)c(-c3ccccc3)c(=O)[nH]2)s1	60.8%
O=C(OCC(=O)N1CCN(C(=O)c2ccco2)CC1)c1ccc(Cl)cc1	-38.7%

Structure (SMILES)	hERG current change (%, negative = inhibition) at 10uM
CCOC(=O)c1[nH]cnc1C(=O)NCc1ccccc1	-16.2%
C=CCC(Nc1ccccc1)c1cccc(OC)c1OC (stereo not shown)	-1.92%
CSc1nnc(SCC(=O)NC(=O)c2ccccc2)s1	15.9%
O=C(COC(=O)CNC(=O)c1ccco1)Nc1ccccc1OC(F)F	11.6%
CC1CCCCC1NS(=O)(=O)c1ccc(S(=O)(=O)NCc2ccncc2)cc1 (stereo not shown)	15%
COc1ccc(S(=O)(=O)N2CCOC23CCN(S(=O)(=O)c2ccc(Cl)cc2)CC3)cc1	-6.69%
CC(=O)c1cccc(N(CC(=O)Nc2ccc(F)cc2)S(C)(=O)=O)c1	-14.9%
COc1ccc(C(=O)NCCc2c[nH]c3ccc(OC)cc23)cc1	2.24%
COc1cc(N)c(Cl)cc1NC(=O)c1ccccc1	12.3%
CCSc1ccc(-c2cccc([N+](=O)[O-])c2)nn1	2.56%
Cc1ccc(N(C)S(=O)(=O)c2ccc3c(c2)NC(=O)C(C)S3)cc1 (stereo not shown)	1.32%
COc1cc(C=O)ccc1OCc1ccc(Cl)nc1	14.2%
CCOc1ccc(NC(=O)CCNC(=O)Cn2ccc3ccccc3c2=O)cc1	23.2%
CCC1=NN2C(=N)/C(=C\c3cccn3-c3ccc(C)cc3C)C(=O)N=C2S1	-5.33%
CCCC1=C(C(=O)OCC)C(c2c(C)nn(-c3ccccc3)c2Cl)C(C#N)=C(N)O1 (stereo not shown)	-16.1%
CC1CCC(C(=O)NC(C(=O)N2CCc3ccccc3C2)C(C)C)CC1 (stereo not shown)	0.394%
CC(=O)N1CC23C=CC(CC2CC12CCCCCC2)O3 (stereo not shown)	2.17%
Cc1nn(-c2ccccc2)c(Cl)c1/C=N/NC(=O)c1cccnc1	-8.73%
O=C(CN1C(=O)S/C(=C\c2ccc(O)c([N+](=O)[O-])c2)C1=O)Nc1ccc(N2CCOCC2)cc1	12.2%
